Test [1] has as its target T1, HA-tagged FBP1 (fructose-1,6-bisphosphatase 1), wild type (UniProt P09467).
T1 sequence: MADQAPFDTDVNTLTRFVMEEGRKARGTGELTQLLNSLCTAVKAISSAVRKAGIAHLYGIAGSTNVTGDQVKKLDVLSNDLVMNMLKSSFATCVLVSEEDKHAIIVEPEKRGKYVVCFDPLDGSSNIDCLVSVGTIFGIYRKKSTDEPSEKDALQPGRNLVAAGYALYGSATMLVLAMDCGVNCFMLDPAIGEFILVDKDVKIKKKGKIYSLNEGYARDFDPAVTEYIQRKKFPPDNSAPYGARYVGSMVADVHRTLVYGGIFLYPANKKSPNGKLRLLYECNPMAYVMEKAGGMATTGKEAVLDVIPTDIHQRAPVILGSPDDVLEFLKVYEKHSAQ
In words: co-IP; 293T cells transfected with HA-, Flag- or GFP-tagged proteins; IP buffer 50mM Tris-HCl pH 7.5, 150mM NaCl, 0.5% NP40; IP with anti-HA or anti-Flag and protein A/G agarose overnight at 4℃; immunoblot. In general terms: In western blotting, separated proteins are transferred to a membrane and probed.

The chains behind the UniProt entries cited, without tags or fusion partners. Where a name states a change or a piece, a line headed by the entry shows the natural chain unless it says otherwise.
UniProt Q04206: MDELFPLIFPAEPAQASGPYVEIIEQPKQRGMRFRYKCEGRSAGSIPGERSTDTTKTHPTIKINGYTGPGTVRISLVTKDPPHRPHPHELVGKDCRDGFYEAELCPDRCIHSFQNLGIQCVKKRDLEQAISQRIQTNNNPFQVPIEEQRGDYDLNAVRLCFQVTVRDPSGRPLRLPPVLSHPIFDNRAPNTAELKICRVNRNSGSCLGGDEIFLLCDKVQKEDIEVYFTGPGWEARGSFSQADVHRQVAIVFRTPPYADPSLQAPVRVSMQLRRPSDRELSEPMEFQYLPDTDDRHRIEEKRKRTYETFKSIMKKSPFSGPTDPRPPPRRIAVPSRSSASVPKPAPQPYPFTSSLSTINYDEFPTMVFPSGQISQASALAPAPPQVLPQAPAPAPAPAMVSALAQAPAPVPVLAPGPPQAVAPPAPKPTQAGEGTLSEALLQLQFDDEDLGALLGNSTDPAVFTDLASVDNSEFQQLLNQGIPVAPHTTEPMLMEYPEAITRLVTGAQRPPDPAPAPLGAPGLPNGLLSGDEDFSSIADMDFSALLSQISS

Test [2] deals with T2, endogenous FBP1 of MCF-7 cells (human (endogenous in MCF-7)) (UniProt P09467).
T2 sequence: T1 sequence
The experiment in a line: co-IP; endogenous proteins of MCF-7 cell lysate; IP with anti-FBP1, anti-PIM2 or anti-p65; IP buffer 50mM Tris-HCl pH 7.5, 150mM NaCl, 0.5% NP40; immunoblot.

Test [3] deals with T3, FBP1 (construct and source not shown: bait of the screen, Figures S2C, S2D and S3C) (UniProt P09467).
T3 sequence: T1 sequence
The experiment in a line: immunoaffinity purification (screen with FBP1 as bait); FBP1 as bait to screen for interaction partners; details not shown.

A further test addresses T4, HA-tagged FBP1 S144D (UniProt P09467).
T4 sequence: T1 sequence with S144D
The experiment in a line: co-IP; 293T cells transfected with HA-, Flag- or GFP-tagged proteins; IP buffer 50mM Tris-HCl pH 7.5, 150mM NaCl, 0.5% NP40; IP with anti-HA or anti-Flag and protein A/G agarose overnight at 4℃; immunoblot.

Substitutions are numbered along the chain they refer to. Results are given in words; binding and its absence hold for the method and conditions named. For some assays here: In cells and extracts the contact can be indirect. Some results given as binding are weak or reduced against the parent protein; the word gives no strength. For some assays here: Tags and fused reporters may be left off the sequences shown.

The values that follow come from article PMC7392005.

Consider “GFP-tagged p65 DNA-binding domain (1-292aa) (from UniProt Q04206 1-292) (domain or fragment)”, for which the binding result in test [1] is on record as “binds”.

Turning to “endogenous NF-κB p65 of MCF-7 cells (from UniProt Q04206 1-551)”, the binding result in test [2] is listed as “binds”.

Regarding “NF-κB p65 (construct and source not shown: hit of the screen, Figure S2B) (from UniProt Q04206 1-551)”, in test [3], the binding result is reported as “binds”.

As to “Flag-tagged NF-κB p65 (from UniProt Q04206 1-551)”, the binding entry is “binds” in test [1] and “no binding” with HA-tagged FBP1 S144D.
